Data taken from the supplement of paper PMC9151546.
Structures can show the parent of a compound that is named as a salt. Single values are uncertain, as repeats are few or missing.

Tests used:
CHO-K1 [1] = experiment: relative survival (nuclei to bead ratio vs DMSO control) (% of vehicle control); higher = more surviving cells
Description: (§1)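 Flow-cytometric in vitro micronucleus assay (Litron MicroFlow) in CHO-K1 cells in 96-well plates, 19 concentrations (4.5-200 µM, n=1 per concentration). Without S9, cells were exposed for 24 h and sampled at 48 h. With Aroclor 1254-induced rat liver S9, cells were exposed for 3-4 h and sampled at 27-28 h. Read-outs are %MN and %hypodiploid nuclei relative to nucleated events, and relative survival as the nuclei-to-bead ratio versus the 1% DMSO vehicle control (x100).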

CHO-K1 [2] = experiment: micronucleus frequency (% of nucleated events); higher = more micronuclei (genotoxic)
CHO-K1 [3] = experiment: hypodiploid nuclei frequency (% of nucleated events); higher = more hypodiploid events (aneugenic)
Description: as §1
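Throughout, for hypodiploid nuclei frequency (% of nucleated events): hypodiploid nuclei gated on a flow cytometer with 488 nm excitation after SYTOX Green staining, cultures at 37 °C, positive controls vinblastine without S9 and cyclophosphamide with S9.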
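Throughout, for micronucleus frequency (% of nucleated events): cells lysed with nuclei stained by SYTOX Green, then micronucleus-gated events counted against nucleated events by flow cytometry with 488 nm excitation.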
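Throughout, for relative survival (nuclei to bead ratio vs DMSO control): Lysed-cell nuclei stained with SYTOX Green and counted against counting beads by flow cytometry at 488 nm excitation, with vinblastine (no S9) and cyclophosphamide (plus S9) as positive controls.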

C/C=C\c1ccc(O)c(OC)c1 [Isoeugenol]
Details	hypodiploid nuclei frequency, CHO-K1 [3] [%]	micronucleus frequency, CHO-K1 [2] [%]	relative survival, CHO-K1 [1]
concentration: 4.5 (µM), S9 metabolic activation: with S9, exposure time: 3-4 hours	0.2	1.42	119
concentration: 4.5 (µM), S9 metabolic activation: without S9, exposure time: 24 hours	0.68	1.94	142
concentration: 5.63 (µM), S9 metabolic activation: with S9, exposure time: 3-4 hours	0.14	1.9	115
concentration: 5.63 (µM), S9 metabolic activation: without S9, exposure time: 24 hours	0.8	1.64	154
concentration: 7.04 (µM), S9 metabolic activation: with S9, exposure time: 3-4 hours	0.3	1.44	139
concentration: 7.04 (µM), S9 metabolic activation: without S9, exposure time: 24 hours	0.58	2.14	117
concentration: 8.8 (µM), S9 metabolic activation: with S9, exposure time: 3-4 hours	0.28	1.1	140
concentration: 8.8 (µM), S9 metabolic activation: without S9, exposure time: 24 hours	0.5	1.48	166
concentration: 11 (µM), S9 metabolic activation: with S9, exposure time: 3-4 hours	0.12	0.96	132
concentration: 11 (µM), S9 metabolic activation: without S9, exposure time: 24 hours	0.64	1.62	148
concentration: 13.7 (µM), S9 metabolic activation: with S9, exposure time: 3-4 hours	0.28	1.24	146
concentration: 13.7 (µM), S9 metabolic activation: without S9, exposure time: 24 hours	0.7	2.14	118
concentration: 17.2 (µM), S9 metabolic activation: with S9, exposure time: 3-4 hours	0.12	1.32	133
concentration: 17.2 (µM), S9 metabolic activation: without S9, exposure time: 24 hours	0.5	1.36	145
concentration: 21.5 (µM), S9 metabolic activation: with S9, exposure time: 3-4 hours	0.18	1.2	134
concentration: 21.5 (µM), S9 metabolic activation: without S9, exposure time: 24 hours	0.84	1.94	120
concentration: 26.8 (µM), S9 metabolic activation: with S9, exposure time: 3-4 hours	0.32	1.02	128
concentration: 26.8 (µM), S9 metabolic activation: without S9, exposure time: 24 hours	0.68	1.36	137
concentration: 33.6 (µM), S9 metabolic activation: with S9, exposure time: 3-4 hours	0.22	1.2	154
concentration: 33.6 (µM), S9 metabolic activation: without S9, exposure time: 24 hours	0.86	1.58	156
concentration: 41.9 (µM), S9 metabolic activation: with S9, exposure time: 3-4 hours	0.1	1.1	120
concentration: 41.9 (µM), S9 metabolic activation: without S9, exposure time: 24 hours	0.7	1.56	118
concentration: 52.4 (µM), S9 metabolic activation: with S9, exposure time: 3-4 hours	0.16	0.76	118
concentration: 52.4 (µM), S9 metabolic activation: without S9, exposure time: 24 hours	0.8	1.28	146
concentration: 65.5 (µM), S9 metabolic activation: with S9, exposure time: 3-4 hours	0.12	0.98	119
concentration: 65.5 (µM), S9 metabolic activation: without S9, exposure time: 24 hours	0.96	1.68	133
concentration: 81.9 (µM), S9 metabolic activation: with S9, exposure time: 3-4 hours	0.22	1.16	122
concentration: 81.9 (µM), S9 metabolic activation: without S9, exposure time: 24 hours	1.12	1.4	108
concentration: 102 (µM), S9 metabolic activation: with S9, exposure time: 3-4 hours	0.32	0.98	130
concentration: 102 (µM), S9 metabolic activation: without S9, exposure time: 24 hours	1.18	1.68	102
concentration: 128 (µM), S9 metabolic activation: with S9, exposure time: 3-4 hours	0.18	1.1	120
concentration: 128 (µM), S9 metabolic activation: without S9, exposure time: 24 hours	1.56	2.26	86
concentration: 160 (µM), S9 metabolic activation: with S9, exposure time: 3-4 hours	0.14	1.18	111
concentration: 160 (µM), S9 metabolic activation: without S9, exposure time: 24 hours	1.24	2.56	110
concentration: 200 (µM), S9 metabolic activation: with S9, exposure time: 3-4 hours	0.2	1.16	90.5
concentration: 200 (µM), S9 metabolic activation: without S9, exposure time: 24 hours	1.44	2.48	69.9

CC(C)NCC(O)c1ccc(O)c(O)c1 (stereo not drawn) [Isoproterenol hydrochloride]
Details	hypodiploid nuclei frequency, CHO-K1 [3] [%]	micronucleus frequency, CHO-K1 [2] [%]	relative survival, CHO-K1 [1]
concentration: 4.5 (µM), S9 metabolic activation: with S9, exposure time: 3-4 hours	0.3	1.48	90.6
concentration: 4.5 (µM), S9 metabolic activation: without S9, exposure time: 24 hours	0.52	1.3	129
concentration: 5.63 (µM), S9 metabolic activation: with S9, exposure time: 3-4 hours	0.28	1.56	102
concentration: 5.63 (µM), S9 metabolic activation: without S9, exposure time: 24 hours	0.32	0.88	99.6
concentration: 7.04 (µM), S9 metabolic activation: with S9, exposure time: 3-4 hours	0.2	1.26	85.8
concentration: 7.04 (µM), S9 metabolic activation: without S9, exposure time: 24 hours	0.56	1.24	119
concentration: 8.8 (µM), S9 metabolic activation: with S9, exposure time: 3-4 hours	0.18	0.84	87.8
concentration: 8.8 (µM), S9 metabolic activation: without S9, exposure time: 24 hours	0.62	1.52	108
concentration: 11 (µM), S9 metabolic activation: with S9, exposure time: 3-4 hours	0.18	1.38	83
concentration: 11 (µM), S9 metabolic activation: without S9, exposure time: 24 hours	0.62	1.28	157
concentration: 13.7 (µM), S9 metabolic activation: with S9, exposure time: 3-4 hours	0.26	1.16	93.8
concentration: 13.7 (µM), S9 metabolic activation: without S9, exposure time: 24 hours	2.36	1.96	122
concentration: 17.2 (µM), S9 metabolic activation: with S9, exposure time: 3-4 hours	0.22	1.34	108
concentration: 17.2 (µM), S9 metabolic activation: without S9, exposure time: 24 hours	0.52	1.66	110
concentration: 21.5 (µM), S9 metabolic activation: with S9, exposure time: 3-4 hours	0.2	1.24	106
concentration: 21.5 (µM), S9 metabolic activation: without S9, exposure time: 24 hours	1.06	1.98	116
concentration: 26.8 (µM), S9 metabolic activation: with S9, exposure time: 3-4 hours	0.2	1.08	66.5
concentration: 26.8 (µM), S9 metabolic activation: without S9, exposure time: 24 hours	1.04	1.66	107
concentration: 33.6 (µM), S9 metabolic activation: with S9, exposure time: 3-4 hours	0.24	0.88	109
concentration: 33.6 (µM), S9 metabolic activation: without S9, exposure time: 24 hours	0.74	1.88	130
concentration: 41.9 (µM), S9 metabolic activation: with S9, exposure time: 3-4 hours	0.2	1.14	66.5
concentration: 41.9 (µM), S9 metabolic activation: without S9, exposure time: 24 hours	0.78	1.2	130
concentration: 52.4 (µM), S9 metabolic activation: with S9, exposure time: 3-4 hours	0.24	1.24	95
concentration: 52.4 (µM), S9 metabolic activation: without S9, exposure time: 24 hours	0.7	1.3	129
concentration: 65.5 (µM), S9 metabolic activation: with S9, exposure time: 3-4 hours	0.2	1.2	70.5
concentration: 65.5 (µM), S9 metabolic activation: without S9, exposure time: 24 hours	0.8	2.14	119
concentration: 81.9 (µM), S9 metabolic activation: with S9, exposure time: 3-4 hours	0.24	1.3	90.9
concentration: 81.9 (µM), S9 metabolic activation: without S9, exposure time: 24 hours	1.06	1.66	116
concentration: 102 (µM), S9 metabolic activation: with S9, exposure time: 3-4 hours	0.32	1.72	77.3
concentration: 102 (µM), S9 metabolic activation: without S9, exposure time: 24 hours	1.3	2.02	136
concentration: 128 (µM), S9 metabolic activation: with S9, exposure time: 3-4 hours	0.24	1.4	95
concentration: 128 (µM), S9 metabolic activation: without S9, exposure time: 24 hours	1.46	2.46	83.9
concentration: 160 (µM), S9 metabolic activation: with S9, exposure time: 3-4 hours	0.22	2.14	94.7
concentration: 160 (µM), S9 metabolic activation: without S9, exposure time: 24 hours	2.38	1.98	78.2
concentration: 200 (µM), S9 metabolic activation: with S9, exposure time: 3-4 hours	0.42	2.46	86
concentration: 200 (µM), S9 metabolic activation: without S9, exposure time: 24 hours	2.5	3.36	62.4

O=C1C2(Cl)C3(Cl)C4(Cl)C(Cl)(Cl)C5(Cl)C3(Cl)C1(Cl)C5(Cl)C24Cl (stereo not drawn) [Kepone]
Details	hypodiploid nuclei frequency, CHO-K1 [3] [%]	micronucleus frequency, CHO-K1 [2] [%]	relative survival, CHO-K1 [1]
concentration: 4.5 (µM), S9 metabolic activation: with S9, exposure time: 3-4 hours	0.26	1.7	102
concentration: 4.5 (µM), S9 metabolic activation: without S9, exposure time: 24 hours	0.44	2.12	99.6
concentration: 5.63 (µM), S9 metabolic activation: with S9, exposure time: 3-4 hours	0.2	1.42	103
concentration: 5.63 (µM), S9 metabolic activation: without S9, exposure time: 24 hours	0.38	1.84	117
concentration: 7.04 (µM), S9 metabolic activation: with S9, exposure time: 3-4 hours	0.34	1.7	103
concentration: 7.04 (µM), S9 metabolic activation: without S9, exposure time: 24 hours	0.52	2.16	105
concentration: 8.8 (µM), S9 metabolic activation: with S9, exposure time: 3-4 hours	0.14	1.44	108
concentration: 8.8 (µM), S9 metabolic activation: without S9, exposure time: 24 hours	0.48	1.82	122
concentration: 11 (µM), S9 metabolic activation: with S9, exposure time: 3-4 hours	0.2	1.64	109
concentration: 11 (µM), S9 metabolic activation: without S9, exposure time: 24 hours	0.64	1.18	110
concentration: 13.7 (µM), S9 metabolic activation: with S9, exposure time: 3-4 hours	0.2	1.76	97.9
concentration: 13.7 (µM), S9 metabolic activation: without S9, exposure time: 24 hours	0.24	1.72	108
concentration: 17.2 (µM), S9 metabolic activation: with S9, exposure time: 3-4 hours	0.34	2.08	105
concentration: 17.2 (µM), S9 metabolic activation: without S9, exposure time: 24 hours	0.44	1.62	119
concentration: 21.5 (µM), S9 metabolic activation: with S9, exposure time: 3-4 hours	0.24	1.86	105
concentration: 21.5 (µM), S9 metabolic activation: without S9, exposure time: 24 hours	0.64	1.4	105
concentration: 26.8 (µM), S9 metabolic activation: with S9, exposure time: 3-4 hours	0.16	1.48	132
concentration: 26.8 (µM), S9 metabolic activation: without S9, exposure time: 24 hours	0.4	2.18	68.8
concentration: 33.6 (µM), S9 metabolic activation: with S9, exposure time: 3-4 hours	0.2	1.58	110
concentration: 33.6 (µM), S9 metabolic activation: without S9, exposure time: 24 hours	0.6	2.28	61.2
concentration: 41.9 (µM), S9 metabolic activation: with S9, exposure time: 3-4 hours	0.18	1.5	108
concentration: 41.9 (µM), S9 metabolic activation: without S9, exposure time: 24 hours	0.52	2.84	60.7
concentration: 52.4 (µM), S9 metabolic activation: with S9, exposure time: 3-4 hours	0.2	1.44	106
concentration: 52.4 (µM), S9 metabolic activation: without S9, exposure time: 24 hours	0.54	3.52	50
concentration: 65.5 (µM), S9 metabolic activation: with S9, exposure time: 3-4 hours	0.42	2.44	86.2
concentration: 65.5 (µM), S9 metabolic activation: without S9, exposure time: 24 hours	2.68	28.6	50.8
concentration: 81.9 (µM), S9 metabolic activation: with S9, exposure time: 3-4 hours	0.34	5.32	40.9
concentration: 81.9 (µM), S9 metabolic activation: without S9, exposure time: 24 hours	–	–	39.5
concentration: 102 (µM), S9 metabolic activation: with S9, exposure time: 3-4 hours	–	–	12.2
concentration: 102 (µM), S9 metabolic activation: without S9, exposure time: 24 hours	–	–	19.3
concentration: 128 (µM), S9 metabolic activation: with S9, exposure time: 3-4 hours	–	–	0.12
concentration: 128 (µM), S9 metabolic activation: without S9, exposure time: 24 hours	–	–	6.96
concentration: 200 (µM), S9 metabolic activation: with S9, exposure time: 3-4 hours	–	–	0.06
